These are yes or no findings as the source states them, for the method shown. Some binding calls cover weakened binding; strength is not graded here.
What was measured:
Assay in all cases: two-hybrid; S. cerevisiae AH109 co-transformed with pGBKT7-ARF (bait) and pGADT7-Aux/IAA (prey); growth on SD/-Ade-His-Leu-Trp against SD/-Leu/-Trp; at least 10 independent colonies; serial dilutions for strength
[1] = biological target: T1, ARF7 (Arabidopsis thaliana) (UniProt P93022)
T1 sequence: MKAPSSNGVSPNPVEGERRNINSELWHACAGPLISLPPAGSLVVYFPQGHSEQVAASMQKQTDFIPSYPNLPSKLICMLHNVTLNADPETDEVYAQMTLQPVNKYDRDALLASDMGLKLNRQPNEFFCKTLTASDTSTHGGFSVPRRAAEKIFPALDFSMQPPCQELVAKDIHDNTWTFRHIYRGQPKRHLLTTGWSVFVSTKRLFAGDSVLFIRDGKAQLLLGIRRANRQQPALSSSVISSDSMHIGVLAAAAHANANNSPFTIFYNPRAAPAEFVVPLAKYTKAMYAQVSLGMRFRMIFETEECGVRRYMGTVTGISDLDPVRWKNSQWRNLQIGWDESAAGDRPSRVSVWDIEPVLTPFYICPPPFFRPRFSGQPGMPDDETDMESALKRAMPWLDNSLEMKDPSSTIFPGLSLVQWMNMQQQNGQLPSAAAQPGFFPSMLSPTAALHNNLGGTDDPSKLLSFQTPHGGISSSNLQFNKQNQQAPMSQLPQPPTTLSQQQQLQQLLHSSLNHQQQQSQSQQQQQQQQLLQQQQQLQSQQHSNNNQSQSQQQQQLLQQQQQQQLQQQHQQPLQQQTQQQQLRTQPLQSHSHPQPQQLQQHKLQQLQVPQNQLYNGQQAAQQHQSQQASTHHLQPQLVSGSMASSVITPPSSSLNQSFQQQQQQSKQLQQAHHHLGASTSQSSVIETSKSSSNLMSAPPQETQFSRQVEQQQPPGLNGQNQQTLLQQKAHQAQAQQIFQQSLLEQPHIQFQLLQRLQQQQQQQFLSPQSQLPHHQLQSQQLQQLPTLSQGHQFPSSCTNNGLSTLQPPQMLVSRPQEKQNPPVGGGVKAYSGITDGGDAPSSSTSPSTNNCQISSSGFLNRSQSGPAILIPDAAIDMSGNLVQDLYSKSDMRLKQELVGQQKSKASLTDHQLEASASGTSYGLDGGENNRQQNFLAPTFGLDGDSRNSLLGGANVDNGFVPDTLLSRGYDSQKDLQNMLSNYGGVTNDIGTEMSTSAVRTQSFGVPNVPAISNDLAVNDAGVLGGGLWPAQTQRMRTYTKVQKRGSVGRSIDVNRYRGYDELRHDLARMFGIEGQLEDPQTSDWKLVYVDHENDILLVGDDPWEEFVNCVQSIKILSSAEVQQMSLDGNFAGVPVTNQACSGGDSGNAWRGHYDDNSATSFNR

Amino acid sequences for entries named in this document (tags omitted).
UniProt Q38825: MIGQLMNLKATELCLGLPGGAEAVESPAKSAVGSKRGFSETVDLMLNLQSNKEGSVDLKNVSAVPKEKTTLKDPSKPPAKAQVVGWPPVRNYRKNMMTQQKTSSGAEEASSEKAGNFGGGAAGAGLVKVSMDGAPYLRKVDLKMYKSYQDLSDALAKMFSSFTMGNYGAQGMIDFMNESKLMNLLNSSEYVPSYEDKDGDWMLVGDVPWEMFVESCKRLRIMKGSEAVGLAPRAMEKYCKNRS
UniProt P93830: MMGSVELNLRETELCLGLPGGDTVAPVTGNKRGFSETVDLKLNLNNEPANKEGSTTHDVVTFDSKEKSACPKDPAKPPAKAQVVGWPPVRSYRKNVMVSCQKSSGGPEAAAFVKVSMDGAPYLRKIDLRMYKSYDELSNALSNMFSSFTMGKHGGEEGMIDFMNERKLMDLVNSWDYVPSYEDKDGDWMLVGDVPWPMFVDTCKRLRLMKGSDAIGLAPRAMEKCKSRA
UniProt Q38832: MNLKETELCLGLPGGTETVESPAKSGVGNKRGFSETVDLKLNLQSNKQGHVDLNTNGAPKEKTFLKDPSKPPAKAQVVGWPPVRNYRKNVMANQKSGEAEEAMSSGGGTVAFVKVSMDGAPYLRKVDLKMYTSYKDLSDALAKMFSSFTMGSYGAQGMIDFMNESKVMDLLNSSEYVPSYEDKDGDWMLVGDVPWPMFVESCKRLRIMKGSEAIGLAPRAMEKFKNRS

[2] = biological target: T2, ARF6 (Arabidopsis thaliana) (UniProt Q9ZTX8)
T2 sequence: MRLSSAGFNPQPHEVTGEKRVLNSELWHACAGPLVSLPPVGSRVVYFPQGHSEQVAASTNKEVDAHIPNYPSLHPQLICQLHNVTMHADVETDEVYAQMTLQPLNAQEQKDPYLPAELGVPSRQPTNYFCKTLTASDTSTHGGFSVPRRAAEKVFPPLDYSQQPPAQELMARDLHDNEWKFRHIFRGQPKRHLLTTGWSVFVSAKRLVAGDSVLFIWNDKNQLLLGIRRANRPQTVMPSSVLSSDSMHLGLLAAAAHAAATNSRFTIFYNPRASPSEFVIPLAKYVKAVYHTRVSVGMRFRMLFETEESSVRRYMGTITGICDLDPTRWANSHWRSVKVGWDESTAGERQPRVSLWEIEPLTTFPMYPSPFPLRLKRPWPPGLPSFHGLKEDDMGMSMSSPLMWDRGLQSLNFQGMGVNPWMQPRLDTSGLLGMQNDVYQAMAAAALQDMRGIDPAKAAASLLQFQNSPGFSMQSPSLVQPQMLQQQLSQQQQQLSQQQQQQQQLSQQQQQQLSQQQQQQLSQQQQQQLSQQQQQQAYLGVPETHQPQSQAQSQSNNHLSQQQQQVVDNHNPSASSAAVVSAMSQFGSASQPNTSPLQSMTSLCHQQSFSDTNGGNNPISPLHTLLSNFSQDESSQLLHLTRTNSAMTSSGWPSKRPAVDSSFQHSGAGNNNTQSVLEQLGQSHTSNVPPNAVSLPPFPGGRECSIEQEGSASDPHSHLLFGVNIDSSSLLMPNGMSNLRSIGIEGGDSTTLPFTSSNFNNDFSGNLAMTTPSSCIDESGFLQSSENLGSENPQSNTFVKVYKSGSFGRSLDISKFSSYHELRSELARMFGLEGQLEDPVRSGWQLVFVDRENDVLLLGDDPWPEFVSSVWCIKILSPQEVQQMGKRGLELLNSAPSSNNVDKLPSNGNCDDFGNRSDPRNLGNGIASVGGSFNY

[3] = biological target: T3, ARF12 (Arabidopsis thaliana) (UniProt Q9XID4)
T3 sequence: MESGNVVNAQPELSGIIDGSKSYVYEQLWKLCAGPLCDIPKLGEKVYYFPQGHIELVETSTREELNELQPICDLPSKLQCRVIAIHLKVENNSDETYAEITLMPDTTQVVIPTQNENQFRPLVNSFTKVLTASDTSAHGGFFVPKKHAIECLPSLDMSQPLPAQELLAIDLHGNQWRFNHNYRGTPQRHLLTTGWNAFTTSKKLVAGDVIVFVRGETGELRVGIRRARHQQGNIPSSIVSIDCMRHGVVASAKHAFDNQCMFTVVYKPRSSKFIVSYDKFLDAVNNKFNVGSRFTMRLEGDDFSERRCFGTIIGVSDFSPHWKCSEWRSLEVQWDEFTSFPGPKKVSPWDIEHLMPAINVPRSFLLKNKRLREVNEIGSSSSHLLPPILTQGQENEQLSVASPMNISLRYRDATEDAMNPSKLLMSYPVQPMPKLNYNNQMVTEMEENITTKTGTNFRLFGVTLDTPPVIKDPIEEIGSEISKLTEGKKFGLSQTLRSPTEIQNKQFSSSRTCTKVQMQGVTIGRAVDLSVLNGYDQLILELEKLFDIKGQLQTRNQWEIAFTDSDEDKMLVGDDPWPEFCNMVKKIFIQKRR

binding [1] | binding [2] | binding [3] | Substance
no binding | binds | no binding | Aux/IAA7 (from UniProt Q38825 1-243)
binds | binds | no binding | Aux/IAA17 (from UniProt P93830 1-229)
binds | binds | no binding | Aux/IAA14 (from UniProt Q38832 1-228)
